The record followed here is the BET-seq Pho4 binding data (Le et al. 2018).

The list shows a part of the results. Values were computed here from the reads of four pooled replicates and scatter widely.

This assay deals with T1, Pho4 (S. cerevisiae) (UniProt P07270).
T1 sequence: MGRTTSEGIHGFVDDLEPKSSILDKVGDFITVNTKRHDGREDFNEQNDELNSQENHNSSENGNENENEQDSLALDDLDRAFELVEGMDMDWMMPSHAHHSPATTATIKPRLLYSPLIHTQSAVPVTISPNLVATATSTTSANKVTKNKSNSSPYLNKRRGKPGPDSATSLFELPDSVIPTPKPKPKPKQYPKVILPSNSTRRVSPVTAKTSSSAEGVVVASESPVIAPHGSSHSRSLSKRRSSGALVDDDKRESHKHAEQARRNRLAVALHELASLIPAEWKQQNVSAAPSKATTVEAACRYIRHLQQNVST
Kind of assay: relative binding free energy (BET-seq); higher = weaker binding. As to conditions: reference: library average.
For AGGCGCACGTGGAGGC, the “relative binding free energy” value was -0.05 kcal/mol.

Regarding AGTGTCACGTGGTGAG, the “relative binding free energy” value was -0.14 kcal/mol.

Turning to CGCGTCACGTGTTTGG, the “relative binding free energy” value came to 0.02 kcal/mol.

For TAATGCACGTGTAATT, the “relative binding free energy” value is 0.06 kcal/mol.

Consider CTATGCACGTGTGCGT, for which the “relative binding free energy” value was -0.01 kcal/mol.

Consider TCTGTCACGTGTGAAT, for which the “relative binding free energy” value came to 0.18 kcal/mol.

ATGTACACGTGTATTT: the “relative binding free energy” value came to 0.17 kcal/mol.

ATTAGCACGTGCATGT: the “relative binding free energy” value is -0.1 kcal/mol.

CGTGTCACGTGATTAT: the “relative binding free energy” value stood at 0.2 kcal/mol.

Consider CTTAACACGTGTCGGG, for which the “relative binding free energy” value is 0.09 kcal/mol.

On to TTACTCACGTGGGAGG, for which the “relative binding free energy” value worked out at 0.08 kcal/mol.

As for AAGTGCACGTGGCTTA, the “relative binding free energy” value is -0.11 kcal/mol.

On to ATTTTCACGTGGTGAT, for which the “relative binding free energy” value was determined as 0.27 kcal/mol.

For the sequence TGGATCACGTGGTTTG, the “relative binding free energy” value came to 0.08 kcal/mol.

Regarding GTGTTCACGTGGTTTG, the “relative binding free energy” value was determined as 0.28 kcal/mol.

With GATGGCACGTGTCGTG, the “relative binding free energy” value was determined as 0.11 kcal/mol.

Take TGTTTCACGTGTAGGG: the “relative binding free energy” value was 0.22 kcal/mol.

As for GTTTACACGTGATGTT, the “relative binding free energy” value stood at 0.38 kcal/mol.

Consider ATTTTCACGTGTTCAT, for which the “relative binding free energy” value was 0.28 kcal/mol.

For the sequence CGGGTCACGTGATATT, the “relative binding free energy” value is 0.22 kcal/mol.

For ACATACACGTGGTGGG, the “relative binding free energy” value is -0.13 kcal/mol.

Regarding AGGGGCACGTGTGAGA, the “relative binding free energy” value is -0.14 kcal/mol.

Turning to AAGAGCACGTGATGTG, the “relative binding free energy” value turned out to be 0.06 kcal/mol.

Regarding ATATTCACGTGTTCGT, the “relative binding free energy” value was found to be 0.22 kcal/mol.

Take GTCAGCACGTGATAGT: the “relative binding free energy” value worked out at 0.04 kcal/mol.

With TATGACACGTGTAGGA, the “relative binding free energy” value is 0.07 kcal/mol.

Regarding TCCATCACGTGGTGGG, the “relative binding free energy” value worked out at 0.12 kcal/mol.

Take TGGCTCACGTGGGTGC: the “relative binding free energy” value was found to be 0.03 kcal/mol.

In the case of TGTTGCACGTGATAGT, the “relative binding free energy” value is -0.04 kcal/mol.

For the sequence CGTTCCACGTGAGTGT, the “relative binding free energy” value is 0.31 kcal/mol.

Take GGTGACACGTGGTGGG: the “relative binding free energy” value was 0.09 kcal/mol.

On to ATGGGCACGTGCAATT, for which the “relative binding free energy” value is -0.14 kcal/mol.

Turning to TGTGACACGTGGGGGG, the “relative binding free energy” value was -0.1 kcal/mol.

On to AGCTACACGTGTGGAT, for which the “relative binding free energy” value was 0.23 kcal/mol.

As for TTAGGCACGTGATGTA, the “relative binding free energy” value was -0.08 kcal/mol.

For the sequence TAGGTCACGTGTGGGC, the “relative binding free energy” value turned out to be 0.03 kcal/mol.

Regarding ATGGACACGTGTTATG, the “relative binding free energy” value was 0.15 kcal/mol.

Consider TAAAACACGTGATTTG, for which the “relative binding free energy” value amounted to 0.16 kcal/mol.

As to TGCAGCACGTGGAATG, the “relative binding free energy” value came out at 0.05 kcal/mol.

As to CTTTGCACGTGGTTGG, the “relative binding free energy” value is -0.04 kcal/mol.

With AAGTTCACGTGTCTTT, the “relative binding free energy” value came out at 0.3 kcal/mol.

In the case of GTTGCCACGTGGTGGG, the “relative binding free energy” value was -0.05 kcal/mol.

Regarding GTGCTCACGTGAGTAG, the “relative binding free energy” value is 0.3 kcal/mol.

Regarding TTATGCACGTGCATTT, the “relative binding free energy” value is -0.06 kcal/mol.

For CTGGGCACGTGGGGCG, the “relative binding free energy” value is -0.27 kcal/mol.

Turning to CTGATCACGTGTAGTT, the “relative binding free energy” value worked out at 0.18 kcal/mol.

In the case of TATGGCACGTGTTTAC, the “relative binding free energy” value is -0.15 kcal/mol.

Take GATGTCACGTGGGACT: the “relative binding free energy” value was found to be 0.03 kcal/mol.

In the case of GTTTACACGTGTGAAG, the “relative binding free energy” value was 0.29 kcal/mol.

ATAGGCACGTGTAGTC: the “relative binding free energy” value was -0.12 kcal/mol.

On to AGTTCCACGTGCGGTG, for which the “relative binding free energy” value came out at 0.03 kcal/mol.

For GGATGCACGTGGTAGG, the “relative binding free energy” value is -0.14 kcal/mol.

Consider CTAGGCACGTGGTGAA, for which the “relative binding free energy” value is -0.12 kcal/mol.

For the sequence GGTGGCACGTGGACAT, the “relative binding free energy” value was -0.03 kcal/mol.

With ATAAGCACGTGTTCGG, the “relative binding free energy” value was -0.15 kcal/mol.

For TTTTGCACGTGCCAGG, the “relative binding free energy” value was -0.11 kcal/mol.

As to TGTGACACGTGGGGCT, the “relative binding free energy” value was -0.18 kcal/mol.

For the sequence CGGGTCACGTGGCAAG, the “relative binding free energy” value came out at 0.02 kcal/mol.

Take AAGGGCACGTGGGTGT: the “relative binding free energy” value is -0.21 kcal/mol.

TAGTGCACGTGTGTGG: the “relative binding free energy” value was -0.01 kcal/mol.

For the sequence GGATTCACGTGTTAGT, the “relative binding free energy” value was determined as 0.35 kcal/mol.

Consider CGTCTCACGTGTAGTT, for which the “relative binding free energy” value was 0.13 kcal/mol.

TTTTGCACGTGTCTGC: the “relative binding free energy” value was -0.03 kcal/mol.

For TTTGTCACGTGATTGT, the “relative binding free energy” value was 0.25 kcal/mol.

For the sequence TTTCACACGTGGGAGT, the “relative binding free energy” value stood at 0.02 kcal/mol.

As to TGGTGCACGTGACCGG, the “relative binding free energy” value amounted to 0.01 kcal/mol.

As for TCGGTCACGTGGGAAT, the “relative binding free energy” value was found to be 0.04 kcal/mol.

Turning to TTTAACACGTGGGGCG, the “relative binding free energy” value was -0.13 kcal/mol.

With TTTACCACGTGTTAGG, the “relative binding free energy” value is -0.01 kcal/mol.

As to GGTGCCACGTGTATGA, the “relative binding free energy” value came to 0.12 kcal/mol.

As to AGCGACACGTGTGGGA, the “relative binding free energy” value amounted to 0.15 kcal/mol.

For the sequence TCGTTCACGTGTAGTC, the “relative binding free energy” value stood at 0.34 kcal/mol.

As for TTGATCACGTGGTCAG, the “relative binding free energy” value is -0.03 kcal/mol.

Consider AGTCTCACGTGTATTT, for which the “relative binding free energy” value came to 0.02 kcal/mol.

In the case of TTATACACGTGGCTGT, the “relative binding free energy” value worked out at 0.15 kcal/mol.

Turning to GTGTACACGTGGACGG, the “relative binding free energy” value came to 0.15 kcal/mol.

With TGCTACACGTGCTGGG, the “relative binding free energy” value came to 0.05 kcal/mol.

GCGGCCACGTGAGGGG: the “relative binding free energy” value came out at 0.1 kcal/mol.

Take TGGATCACGTGGGCGC: the “relative binding free energy” value stood at 0.15 kcal/mol.

On to CGTATCACGTGGTGTT, for which the “relative binding free energy” value is 0.05 kcal/mol.

For GAAAGCACGTGATTTG, the “relative binding free energy” value came to 0.18 kcal/mol.

For the sequence AATAGCACGTGGTTGG, the “relative binding free energy” value was -0.1 kcal/mol.

For AGTTTCACGTGAGAAG, the “relative binding free energy” value came out at 0.32 kcal/mol.

On to CTTGTCACGTGTTGAG, for which the “relative binding free energy” value worked out at 0.12 kcal/mol.

For GGATACACGTGTGGGA, the “relative binding free energy” value turned out to be 0.12 kcal/mol.

As for GTGAACACGTGAGGAG, the “relative binding free energy” value turned out to be 0.19 kcal/mol.

For the sequence GTCTGCACGTGGCTGG, the “relative binding free energy” value is -0.01 kcal/mol.

CTTGTCACGTGTGTAG: the “relative binding free energy” value stood at 0.05 kcal/mol.

As for ACGGGCACGTGTGGGG, the “relative binding free energy” value was -0.11 kcal/mol.

Take TATTACACGTGGGAAA: the “relative binding free energy” value stood at 0.03 kcal/mol.

As for CGGGCCACGTGATAGG, the “relative binding free energy” value was found to be 0.03 kcal/mol.

TTTAGCACGTGGTCGA: the “relative binding free energy” value is -0.18 kcal/mol.

Take AAAAGCACGTGGTATA: the “relative binding free energy” value is -0.08 kcal/mol.

Consider GGGTTCACGTGTGGGT, for which the “relative binding free energy” value was 0.38 kcal/mol.

As to TTGGTCACGTGATTAA, the “relative binding free energy” value came out at 0.38 kcal/mol.

Turning to GGTATCACGTGGTGCT, the “relative binding free energy” value was found to be 0.06 kcal/mol.

For TTTGGCACGTGATCGA, the “relative binding free energy” value was -0.22 kcal/mol.

For the sequence ATGGGCACGTGGAGAA, the “relative binding free energy” value is -0.04 kcal/mol.

Take AGTGACACGTGGGCTT: the “relative binding free energy” value is -0.22 kcal/mol.

As for TGGGACACGTGGTGAC, the “relative binding free energy” value was -0.06 kcal/mol.

In the case of GCGTGCACGTGTGGAC, the “relative binding free energy” value stood at 0.21 kcal/mol.

In the case of ATATTCACGTGATAGT, the “relative binding free energy” value was 0.09 kcal/mol.

As for TCTTACACGTGGTAGT, the “relative binding free energy” value is -0.01 kcal/mol.

As to ACGCTCACGTGGAGGG, the “relative binding free energy” value worked out at 0.18 kcal/mol.

As for TTTGTCACGTGAACGT, the “relative binding free energy” value was determined as 0.19 kcal/mol.

ATATGCACGTGGTTGT: the “relative binding free energy” value was -0.08 kcal/mol.

With TACCGCACGTGTGGGA, the “relative binding free energy” value was 0.07 kcal/mol.

As for AGAGCCACGTGGGTAG, the “relative binding free energy” value is -0.23 kcal/mol.

For the sequence CAGTTCACGTGTGCAT, the “relative binding free energy” value worked out at 0.37 kcal/mol.

On to TATTGCACGTGTAGCG, for which the “relative binding free energy” value came out at 0.17 kcal/mol.

As to TCTTGCACGTGGTAAG, the “relative binding free energy” value is -0.03 kcal/mol.

With AGGTGCACGTGTGACT, the “relative binding free energy” value is -0.06 kcal/mol.

For TTTTGCACGTGCGCTG, the “relative binding free energy” value stood at 0 kcal/mol.

For CGGCGCACGTGGCAGG, the “relative binding free energy” value is -0.18 kcal/mol.

CTGGACACGTGCTGGG: the “relative binding free energy” value was -0.03 kcal/mol.
